About 220 (0.56%) of roughly 39,000 compounds showed activity. This is one part of the list.
Tested on: Escherichia coli K-12 BW25113
Assay: relative growth (OD600 normalised to plate interquartile mean) (fraction); higher = less growth inhibition, active = 0.2 or less
Conditions: 50 µM; LB; incubation time: overnight (16-24 h)
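Note: static incubation at 37 °C against the wild-type strain, values averaged over two biological replicates.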

Row | Structure (SMILES) | relative growth
1 | C[C@@H]1CCCCO[C@@H](CN(C)C(=O)Nc2ccc(F)cc2)[C@H](C)CN([C@@H](C)CO)C(=O)c2cc(NC(=O)Nc3ccccc3)ccc2O1 | inactive: 1.03
2 | COCCNC(=O)C[C@@H]1C[C@H]2c3cc(NS(C)(=O)=O)ccc3O[C@H]2[C@@H](CO)O1 | inactive: 0.981
3 | COCC(=O)Nc1ccc2c(c1)C(=O)N(C)C[C@@H](OC)[C@H](C)CN(Cc1ccccc1OC)[C@H](C)CO2 | inactive: 0.988
4 | CCCCCCCCCCCCCCCC(=O)OC1C(SC)OC(C(NC(=O)C2CC(CCC)CN2C)C(C)Cl)C(O)C1O.Cl (configuration not stated) | inactive: 0.863
5 | Cc1noc(C)c1NC(=O)Nc1ccc2c(c1)C(=O)N([C@H](C)CO)C[C@H](C)[C@H](CN(C)S(=O)(=O)c1ccc(Cl)cc1)OCCCC[C@H](C)O2 | inactive: 0.98
6 | COc1cccc(CNC(=O)C[C@@H]2C=C[C@H](NC(=O)C3CCOCC3)[C@H](CO)O2)c1 | inactive: 0.98
7 | C[C@@H]1CCCCO[C@H](CN(C)S(=O)(=O)c2ccc(F)cc2)[C@@H](C)CN([C@H](C)CO)C(=O)c2cc(NS(=O)(=O)c3cn(C)cn3)ccc2O1 | inactive: 0.992
8 | Cc1ccc(S(=O)(=O)N2C[C@H](O)COC[C@@H]3O[C@H](CC(=O)NCCN4CCCCC4)CC[C@H]32)cc1 | inactive: 0.981
9 | C[C@@H]1CN([C@@H](C)CO)C(=O)c2cc(NC(=O)c3ccncc3)ccc2O[C@H]1CN(C)C(=O)Nc1ccc2c(c1)OCO2 | inactive: 1.03
10 | O=C(Cc1ccncc1)NCC[C@H]1CC[C@@H](NC(=O)C2CCOCC2)[C@H](CO)O1 | inactive: 1.01
11 | C[C@@H]1CN([C@H](C)CO)C(=O)Cc2cc(NS(C)(=O)=O)ccc2O[C@H]1CN(C)S(=O)(=O)c1ccc(Cl)cc1 | inactive: 1.01
12 | C[C@H](CO)N1C[C@H](C)[C@H](CN(C)Cc2ccc(Oc3ccccc3)cc2)Oc2cc(-c3ccncc3)ccc2S1(=O)=O | inactive: 1.04
13 | Cn1cnc2c(C(F)(F)F)nc(N)nc21 | inactive: 1.01
14 | C[C@@H]1CN([C@@H](C)CO)C(=O)c2cc(-c3ccc(C(=O)N(C)C)cc3)cnc2O[C@@H]1CN(C)C(=O)c1ccncc1 | inactive: 0.99
15 | CN(C)CCCNC(=O)C[C@H]1C=C[C@@H](NC(=O)Cc2cccnc2)[C@@H](CO)O1 | inactive: 0.987
16 | COc1ccc(NC(=O)N(C)C[C@@H]2OCCCC[C@@H](C)Oc3ccc(NS(=O)(=O)c4ccccc4)cc3C(=O)N([C@@H](C)CO)C[C@@H]2C)cc1 | inactive: 1
17 | C[C@H](CO)N1C[C@H](C)[C@H](CN(C)Cc2ccc3c(c2)OCO3)OCCCC[C@H](C)Oc2ccc(NC(=O)CCC(F)(F)F)cc2C1=O | inactive: 0.991

Reference: the supplement of paper PMC9446081
